Data published in patent US20220135687A1 (NANJING LEGEND BIOTECH, published 2022).

Tests used:
[1] = molecular target: T1, human PD-L1 expressed on CHO-K1 cells (Genscript, Cat #M00543) (human, UniProt Q9NZQ7); assay: cell-based or functional assay
[2] = molecular target: T1, human PD-L1 expressed on CHO-K1 cells …; assay: FACS, CHO-K1/human PD-L1 cells
Method: PD-L1 stable cell line binding activity assessment of 12 mouse mAbs was carried out using FACS. CHO-K1 cells expressing human PD-L1 (Genscript, Cat #M00543) were dissociated from adherent culture flasks and mixed with varying concentrations of antibodies. The antibody and cells were incubated for 30 minutes at room temperature, washed three times with FACS buffer (PBS containing 1% BSA). PE-labeled goat anti-mouse IgG (minimal x-reactivity) secondary antibody (BioLegend, Cat #405307) was added and incubated at room temperature for 15 minutes. Cells were washed again with FACS buffer and analyzed by FACSCalibur (BD Bioscience, San Jose, Calif.) and Flowjo software. Data were analyzed with Prism 6 (GraphPad Software, San Diego, Calif.) using non-linear regression, and EC₅₀ values were calculated (FIGS. 2A-2L and Table 3).
Human and cynomolgus PD-L1 stable cell line binding activity assessment of chimeric and humanized mAbs was carried out using FACS as described above (FIGS. 9A-9L and FIGS. 10A-10L and Tables 13 and 14).

[3] = molecular target: T2, cynomolgus PD-L1 overexpressing stable cell line (cynomolgus, UniProt G7PSE7 19-290); assay: FACS, cynomolgus PD-L1 cell line
T2 construct: also called cynomolgus PD-L1 overexpressing cell line

[4] = molecular target: T3, His-tagged PD-L1 ECD protein (ACROBiosystems) (human, UniProt Q9NZQ7 partial chain); assay: SPR, supernatant IgG captured, PD-L1-His analyte
T3 construct: Bought protein; also called PD-L1-His; PD-L1/His; not shown: His tag

[5] = molecular target: cynomolgus PD-L1 Fc-fusion protein (cynomolgus, UniProt G7PSE7 19-238); assay: SPR, cyno PD-L1-Fc immobilised, antibody analyte
[6] = molecular target: T3, His-tagged PD-L1 ECD protein …; assay: SPR, IgG captured by anti-human Fc, PD-L1-His analyte
Method: Briefly, capturing antibody (anti-mouse Fc antibody for the affinity measurement of mouse mAbs, or anti-human Fc antibody for the affinity measurement of chimeric and humanized mAbs, GE healthcare) was immobilized on a Biacore™ CM5 chip to approximately 7,000 RU using EDC-activated amine coupling chemistry. Antibody of interest (5 μg/ml) was captured for 60 seconds onto the sensorchip surface. His-tagged PD-L1 ECD protein (ACROBiosystems) was flowed over the sensorchip surface at a series concentrations. Flow rate was 30 μl/min in all experiments. Association and dissociation phases were 5 and 15 min, respectively. The chip was regenerated using Glycine/HCl pH 1.5. Captured antibody and antigen were removed between each cycle using 50 mM HCl in order to ensure a fresh binding surface for each concentration of antigen. The resulting sensorgrams were fit globally using a 1:1 binding model in order to calculate on- and off-rates (ka and kd, respectively), as well as affinities (KD).

[7] = molecular target: T1, human PD-L1 expressed on CHO-K1 cells …; assay: FACS competition vs biotin-PD-1-Fc on CHO-K1/human PD-L1 cells
Method: A series of diluted mouse mAbs (concentration starting from 900 nM, 3 fold dilution, 50 μl per well) were added afterwards. The mixture was incubated at 4° C. for 30 minutes, washed twice with wash buffer, followed by the addition of PEcy5/streptavidin (1 μg/ml, 150 μl/well). The plates were again incubated at 4° C. for 30 minutes before the cells in each well were analyzed by FACSCalibur (BD Bioscience, San Jose, Calif.) and Flowjo software.

EC50, PD-L1 cell-based luciferase reporter assay [1]: 1.31 nM | EC50 [2]: 1.06 nM | Top (best-fit value) [2]: 6380 | EC50 [3]: 2.73 nM | Top (best-fit value) [3]: 8570 | Kd [4]: 0.16 nM | koff [4]: 6.1e-05 s⁻¹ | kon [4]: 380000 M⁻¹ s⁻¹ | Kd [5]: < 0.069 nM | kon [5]: 140000 M⁻¹ s⁻¹ | Kd [6]: 0.4 nM | koff [6]: 0.00011 s⁻¹ | kon [6]: 290000 M⁻¹ s⁻¹ | IC50 [7]: 0.298 nM
B1: 53C1_VH5.M3-VL1.M1 (antibody, human IgG1, kappa)
heavy: EVQLVQSGAEVKKPGASVKVSCKASGYIFTGYGITWVRQAPGQGLEWMGEIFPRRVQTYYSEKFKGRVTMTADTSTSTAYMELRSLRSDDTAVYYCARDYDPYFALDYWGQGTTVTVSSASTKGPSVFPLAPSSKSTSGGTAALGCLVKDYFPEPVTVSWNSGALTSGVHTFPAVLQSSGLYSLSSVVTVPSSSLGTQTYICNVNHKPSNTKVDKKV[sequence of human IgG1 Fc with changes omitted]
light: DIQMTQSPSSLSASVGDRVTITCRASQDVSTAVDWYQQKPGKAPKLLIYSASYRYTGVPDRFSGSGSGTDFTFTISSLQPEDIATYYCQQHYSIPFTFGQGTKLEIKRTVAAPSVFIFPPSDEQLKSGTASVVCLLNNFYPREAKVQWKVDNALQSGNSQESVTEQDSKDSTYSLSSTLTLSKADYEKHKVYACEVTHQGLSSPVTKSFNRGEC
notes: Humanized, VH N57Q in the entry; hIgG1 effector-less Fc, kappa; see recheck on K24R in the .M1 light chain
